# Laboratory results reported in the supplement of paper PMC8728848.
# The list shows a part of the results.
# Assays:
# Test in all cases: glycan array binding signal (z-score within array); higher = stronger binding
# Conditions in all cases: glycan notation: IUPAC condensed, linker removed
# [1] = target: Neu5Ac(a2-3)Gal(b1-4)GlcNAc(b1-2)[Neu5Ac(a2-3)Gal(b1-4)GlcNAc(b1-4)]Man(a1-3)[GlcNAc(b1-4)][Neu5Ac(a2-3)Gal(b1-4)GlcNAc(b1-2)[Neu5Ac(a2-3)Gal(b1-4)GlcNAc(b1-6)]Man(a1-6)]Man(b1-4)GlcNAc(b1-4)GlcNAc
# How it was run: (§1)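 The binding signal is a Z-score computed within each array. Data were drawn from 3228 arrays in the Consortium for Functional Glycomics database, restricted to those with a known protein sequence. Scores were averaged over arrays of the same protein sequence at different concentrations or buffers, and over linkers, and negative values can be taken as non-binding.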
# [2] = target: Neu5Ac(a2-3)Gal(b1-4)GlcNAc(b1-2)[Neu5Ac(a2-3)Gal(b1-4)GlcNAc(b1-4)]Man(a1-3)[GlcNAc(b1-4)][Neu5Ac(a2-3)Gal(b1-4)GlcNAc(b1-4)Man(a1-6)]Man(b1-4)GlcNAc(b1-4)GlcNAc
# How it was run: as §1
# [3] = target: Neu5Ac(a2-3)Gal(b1-4)GlcNAc(b1-2)[Neu5Ac(a2-3)Gal(b1-4)GlcNAc(b1-6)]Man(a1-6)[Neu5Ac(a2-3)Gal(b1-4)GlcNAc(b1-2)Man(a1-3)][GlcNAc(b1-4)]Man(b1-4)GlcNAc(b1-4)GlcNAc
# How it was run: as §1
# [4] = target: Neu5Ac(a2-3)Gal(b1-4)GlcNAc(b1-3)Gal
# How it was run: as §1
# [5] = target: Neu5Ac(a2-3)Gal(b1-4)GlcNAc(b1-3)Gal(b1-3)GlcNAc
# How it was run: as §1
# [6] = target: Neu5Ac(a2-3)Gal(b1-4)GlcNAc(b1-3)Gal(b1-4)GlcNAc
# How it was run: as §1
# [7] = target: Neu5Ac(a2-3)Gal(b1-4)GlcNAc(b1-3)Gal(b1-4)GlcNAc(b1-2)Man(a1-3)[Neu5Ac(a2-3)Gal(b1-4)GlcNAc(b1-3)Gal(b1-4)GlcNAc(b1-2)Man(a1-6)]Man(b1-4)GlcNAc(b1-4)GlcNAc
# How it was run: as §1
# [8] = target: Neu5Ac(a2-3)Gal(b1-4)GlcNAc(b1-3)Gal(b1-4)GlcNAc(b1-3)Gal(b1-4)GlcNAc
# How it was run: as §1
# [9] = target: Neu5Ac(a2-3)Gal(b1-4)GlcNAc(b1-3)Gal(b1-4)GlcNAc(b1-3)Gal(b1-4)GlcNAc(b1-2)Man(a1-3)[Neu5Ac(a2-3)Gal(b1-4)GlcNAc(b1-3)Gal(b1-4)GlcNAc(b1-3)Gal(b1-4)GlcNAc(b1-2)Man(a1-6)]GalNAc
# How it was run: as §1
# [10] = target: Neu5Ac(a2-3)Gal(b1-4)GlcNAc(b1-3)Gal(b1-4)GlcNAc(b1-3)GalNAc
# How it was run: as §1
# [11] = target: Neu5Ac(a2-3)Gal(b1-4)GlcNAc(b1-3)Gal(b1-4)GlcNAc(b1-3)[Neu5Ac(a2-3)Gal(b1-4)GlcNAc(b1-3)Gal(b1-4)GlcNAc(b1-6)]GalNAc
# How it was run: as §1
# [12] = target: Neu5Ac(a2-3)Gal(b1-4)GlcNAc(b1-3)Gal(b1-4)GlcNAc(b1-6)[Gal(b1-3)]GalNAc
# How it was run: as §1
# [13] = target: Neu5Ac(a2-3)Gal(b1-4)GlcNAc(b1-3)Gal(b1-4)[Fuc(a1-3)]GlcNAc
# How it was run: as §1
# [14] = target: Neu5Ac(a2-3)Gal(b1-4)GlcNAc(b1-3)GalNAc
# How it was run: as §1
# [15] = target: Neu5Ac(a2-3)Gal(b1-4)GlcNAc(b1-3)[Neu5Ac(a2-3)Gal(b1-4)GlcNAc(b1-6)]GalNAc
# How it was run: as §1
# [16] = target: Neu5Ac(a2-3)Gal(b1-4)GlcNAc(b1-6)GalNAc
# How it was run: as §1
# [17] = target: Neu5Ac(a2-3)Gal(b1-4)GlcNAc(b1-6)[Gal(b1-3)]GalNAc
# How it was run: as §1
# [18] = target: Neu5Ac(a2-3)Gal(b1-4)GlcNAc(b1-6)[Neu5Ac(a2-3)Gal(b1-3)]GalNAc
# How it was run: as §1
# [19] = target: Neu5Ac(a2-3)Gal(b1-4)GlcNAc6S
# How it was run: as §1
# [20] = target: Neu5Ac(a2-3)Gal(b1-4)[Fuc(a1-3)]GlcNAc
# How it was run: as §1
# [21] = target: Neu5Ac(a2-3)Gal(b1-4)[Fuc(a1-3)]GlcNAc(b1-2)Man
# How it was run: as §1
# [22] = target: Neu5Ac(a2-3)Gal(b1-4)[Fuc(a1-3)]GlcNAc(b1-3)Gal
# How it was run: as §1
# [23] = target: Neu5Ac(a2-3)Gal(b1-4)[Fuc(a1-3)]GlcNAc(b1-3)Gal(b1-4)GlcNAc
# How it was run: as §1
# [24] = target: Neu5Ac(a2-3)Gal(b1-4)[Fuc(a1-3)]GlcNAc(b1-3)Gal(b1-4)[Fuc(a1-3)]GlcNAc(b1-3)Gal(b1-4)[Fuc(a1-3)]GlcNAc
# How it was run: as §1
# [25] = target: Neu5Ac(a2-3)Gal(b1-4)[Fuc(a1-3)]GlcNAc(b1-3)GalNAc
# How it was run: as §1
# [26] = target: Neu5Ac(a2-3)Gal(b1-4)[Fuc(a1-3)]GlcNAc(b1-6)[Gal(b1-3)]GalNAc
# How it was run: as §1
# [27] = target: Neu5Ac(a2-3)Gal(b1-4)[Fuc(a1-3)]GlcNAc(b1-6)[Neu5Ac(a2-3)Gal(b1-3)]GalNAc
# How it was run: as §1
# [28] = target: Neu5Ac(a2-3)Gal(b1-4)[Fuc(a1-3)]GlcNAc6S
# How it was run: as §1
# [29] = target: Neu5Ac(a2-3)Gal6S(b1-4)GlcNAc
# How it was run: as §1
# [30] = target: Neu5Ac(a2-3)Gal6S(b1-4)[Fuc(a1-3)]GlcNAc
# How it was run: as §1
# Neu5Ac(a2-3)GalNAc = target: Neu5Ac(a2-3)GalNAc
# How it was run: as §1
# [31] = target: Neu5Ac(a2-3)GalNAc(b1-4)GlcNAc
# How it was run: as §1
# [32] = target: Neu5Ac(a2-3)[GalNAc(b1-4)]Gal(b1-4)Glc
# How it was run: as §1
# [33] = target: Neu5Ac(a2-3)[GalNAc(b1-4)]Gal(b1-4)GlcNAc
# How it was run: as §1
# [34] = target: Neu5Ac(a2-3)[GalNAc(b1-4)]Gal(b1-4)GlcNAc(b1-3)GalNAc
# How it was run: as §1
# [35] = target: Neu5Ac(a2-3)[Neu5Ac(a2-6)]GalNAc
# How it was run: as §1
# Neu5Ac(a2-6)Gal = target: Neu5Ac(a2-6)Gal
# How it was run: as §1
# [36] = target: Neu5Ac(a2-6)Gal(b1-3)GlcNAc(b1-3)[Gal(b1-4)GlcNAc(b1-6)]Gal(b1-4)Glc
# How it was run: as §1
# Neu5Ac(a2-6)Gal(b1-4)Glc = target: Neu5Ac(a2-6)Gal(b1-4)Glc
# How it was run: as §1
# [37] = target: Neu5Ac(a2-6)Gal(b1-4)GlcNAc
# How it was run: as §1
# [38] = target: Neu5Ac(a2-6)Gal(b1-4)GlcNAc(b1-2)Man
# How it was run: as §1
# [39] = target: Neu5Ac(a2-6)Gal(b1-4)GlcNAc(b1-2)Man(a1-3)Man(b1-4)GlcNAc(b1-4)GlcNAc
# How it was run: as §1
# [40] = target: Neu5Ac(a2-6)Gal(b1-4)GlcNAc(b1-2)Man(a1-3)[Gal(b1-4)GlcNAc(b1-2)Man(a1-6)]Man(b1-4)GlcNAc(b1-4)GlcNAc
# How it was run: as §1
# [41] = target: Neu5Ac(a2-6)Gal(b1-4)GlcNAc(b1-2)Man(a1-3)[GlcNAc(b1-2)Man(a1-6)]Man(b1-4)GlcNAc(b1-4)GlcNAc
# How it was run: as §1
# [42] = target: Neu5Ac(a2-6)Gal(b1-4)GlcNAc(b1-2)Man(a1-3)[GlcNAc(b1-4)][Neu5Ac(a2-6)Gal(b1-4)GlcNAc(b1-2)Man(a1-6)]Man(b1-4)GlcNAc(b1-4)GlcNAc
# How it was run: as §1
binder,measurement,setting,value
rCnSL-proA (Clitocybe nebularis) (protein) AAFFSLVVLLALLPFGIHASALPSTELTPRVNPNLPGPNDVFVGFRGTNNIVGAIYEKDGIKDTPLNNGADAEMGPGSYITDGLFTARIFASGSAGNNPGTTATVCKIYASGVQWRGAPKGYIPVAYFGNGPTAEQRRQTYLRTLGLPGTAIRFGNLNTNPGQGPTAPRQMVVPPGPLRSLLKASCFPAADTRLPQTLHYFEKRVDWNIITAADSQTWGH,glycan array binding signal (z-score),[1],0.042
same,glycan array binding signal (z-score),[2],-0.116
same,glycan array binding signal (z-score),[3],-0.418
same,glycan array binding signal (z-score),[4],-0.931
same,glycan array binding signal (z-score),[5],-0.432
same,glycan array binding signal (z-score),[6],-0.022
same,glycan array binding signal (z-score),[7],1.62
same,glycan array binding signal (z-score),[8],-0.54
same,glycan array binding signal (z-score),[9],4.1
same,glycan array binding signal (z-score),[10],-0.397
same,glycan array binding signal (z-score),[11],0.489
same,glycan array binding signal (z-score),[12],-0.373
same,glycan array binding signal (z-score),[13],-0.136
same,glycan array binding signal (z-score),[14],-0.264
same,glycan array binding signal (z-score),[15],-0.192
same,glycan array binding signal (z-score),[16],-0.108
same,glycan array binding signal (z-score),[17],0.09
same,glycan array binding signal (z-score),[18],-0.211
same,glycan array binding signal (z-score),[19],-0.489
same,glycan array binding signal (z-score),[20],-0.536
same,glycan array binding signal (z-score),[21],-1.35
same,glycan array binding signal (z-score),[22],-0.442
same,glycan array binding signal (z-score),[23],0.272
same,glycan array binding signal (z-score),[24],0.144
same,glycan array binding signal (z-score),[25],0.502
same,glycan array binding signal (z-score),[26],-0.39
same,glycan array binding signal (z-score),[27],0.161
same,glycan array binding signal (z-score),[28],-0.444
same,glycan array binding signal (z-score),[29],-0.759
same,glycan array binding signal (z-score),[30],-0.672
same,glycan array binding signal (z-score),Neu5Ac(a2-3)GalNAc,-0.764
same,glycan array binding signal (z-score),[31],0.043
same,glycan array binding signal (z-score),[32],-0.325
same,glycan array binding signal (z-score),[33],-0.735
same,glycan array binding signal (z-score),[34],0.606
same,glycan array binding signal (z-score),[35],-0.143
same,glycan array binding signal (z-score),Neu5Ac(a2-6)Gal,-0.538
same,glycan array binding signal (z-score),[36],0.024
same,glycan array binding signal (z-score),Neu5Ac(a2-6)Gal(b1-4)Glc,-0.233
same,glycan array binding signal (z-score),[37],-0.253
same,glycan array binding signal (z-score),[38],-0.168
same,glycan array binding signal (z-score),[39],-0.302
same,glycan array binding signal (z-score),[40],-0.272
same,glycan array binding signal (z-score),[41],-0.465
same,glycan array binding signal (z-score),[42],-0.331
